The record followed here is the supplement of paper PMC10126150.

Sequences with one replicate were seen in a single cluster, so their values are uncertain.

The subject of this data set is ATP. The data set is described as follows: switch fluorescence ratio, 500 uM ATP over buffer (Cy3 cluster intensity, sum of 5 cycles each) (fold (ratio)); higher = stronger signal-on switching upon ATP binding; sequences stand for … in TCGTCGGCAGCGTCAGATGTGTATAAGAGACAGTTTTTTTTTTTTTTTTTTTTTTTTT…TC. The conditions noted are these: aptamer strand: ATP DNA aptamer (quencher-CACCTGGGGGAGTATTGCGGAGGAAGG + anchor), 100 nM annealed; ATP concentration: 500 uM; one replicate. The method, boiled down: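 After annealing to 100 nM quencher-labelled ATP aptamer, Cy3-labelled switching-strand clusters on a modified Illumina MiSeq flow-cell were imaged in selection buffer. A second image followed after 15 min with 500 uM ATP at 22 °C, and five such buffer/ATP cycles were done, each separated by NaOH stripping and re-annealing. The fluorescence ratio, averaged per switch-domain sequence, is summed target-cycle over summed buffer-cycle Cy3 intensity per cluster, with clusters outside 100-1000 RFU excluded.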
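Also: ATP exposure 15 min at 22 °C before imaging.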

On to ACAACTGTGC, for which the switch fluorescence ratio was determined as 0.973.
Regarding CGGGTTAA, the switch fluorescence ratio was 0.978.
In the case of TAGAAAGGAG, the switch fluorescence ratio came to 0.968.
Turning to CGCTAGTTC, the switch fluorescence ratio came to 1.17.
Turning to TTTTGTCCTC, the switch fluorescence ratio was found to be 1.02.
For GCAGGGCTCA, the switch fluorescence ratio was 1.04.
Turning to ATTATAATC, the switch fluorescence ratio was determined as 1.
On to AATTCAACTT, for which the switch fluorescence ratio was 0.966.
Take CTATCAGCTG: the switch fluorescence ratio stood at 1.02.
As for CGGAAATCCC, the figure is 1.08.
Next, TGTGGAACAA: 1.07.
Turning to AGGGGGTGC, the switch fluorescence ratio is 1.05.
As for CCACCTTTAG, the figure is 1.02.
Consider ACGGCGGCTC, for which the switch fluorescence ratio is 1.05.
For CGTTACACTT, the switch fluorescence ratio was 1.01.
Regarding CGCTATCTCT, the switch fluorescence ratio stood at 1.7.
On to TAATGCGTGA, for which the switch fluorescence ratio worked out at 0.988.
As for GCTTTAGTCT, the figure is 1.04; as for CGTCGTCTTT, 1.04; as for TAGTAATGT, 1.04.
Regarding GAGTCTGGAG, the switch fluorescence ratio stood at 1.02.
Take TTTCCATCAT: the switch fluorescence ratio is 1.
Take TACCTCCAAA: the switch fluorescence ratio was 1.36.
As to AATAGATACT, the switch fluorescence ratio amounted to 0.978.
In the case of TGCTACGGTT, the switch fluorescence ratio was determined as 1.03.
CATATCAGGT: the switch fluorescence ratio was 0.97.
Take AAGGACTTTT: the switch fluorescence ratio is 1.01.
Consider TAGTGTACCC, for which the switch fluorescence ratio came out at 1.07.
As for GGACGGGTTG, the figure is 0.976; as for TTCGTGACTC, 1.
Next, AAGGCAACAG: 1.1.
As for TACACAAGTT, the figure is 0.996.
With AGCCGAGAC, the switch fluorescence ratio stood at 1.12.
TTAGAATGAA: the switch fluorescence ratio was determined as 0.976.
Next, ATGCTCGGGA: 1.05.
For CATAAGGGTA, the switch fluorescence ratio stood at 1.02.
With TTAGTTGTAC, the switch fluorescence ratio was found to be 1.06.
As to AGTTAGAAGT, the switch fluorescence ratio was 0.986.
As to GGGCACCATT, the switch fluorescence ratio stood at 0.977.
For the sequence GAATAAAGGA, the switch fluorescence ratio was determined as 1.
Consider CATCTTTTCA, for which the switch fluorescence ratio amounted to 0.969.
ATGAAATAG: the switch fluorescence ratio amounted to 1.
On to CAGCGATGGT, for which the switch fluorescence ratio came out at 1.11.
As for AAGGTGCTCA, the figure is 1.09.
Consider GTTTTTGTCC, for which the switch fluorescence ratio turned out to be 1.02.
CGATCGGCCC: the switch fluorescence ratio was 0.977.
Next, CACGAAACGG: 1.24.
Regarding CCCGAGATCA, the switch fluorescence ratio came out at 1.62.
For AATGAGCGCA, the switch fluorescence ratio is 1.04.
As to CGTCAGGAGA, the switch fluorescence ratio turned out to be 0.99.
For TTCTCAATGG, the switch fluorescence ratio came out at 0.998.
TAAAAGCGAA: the switch fluorescence ratio was determined as 1.01.
CTCTGGATGG: the switch fluorescence ratio was determined as 1.13.
As to AACGCAAGTA, the switch fluorescence ratio amounted to 1.16.
On to ACCTGGCTAC, for which the switch fluorescence ratio is 1.77.
With CAACCGCTGA, the switch fluorescence ratio turned out to be 3.94.
Consider ATGACTGGGA, for which the switch fluorescence ratio turned out to be 1.03.
Turning to AAGCTGCCTT, the switch fluorescence ratio turned out to be 1.06.
On to ACTTTGTGGA, for which the switch fluorescence ratio was 0.978.
For CGTTCACTTA, the switch fluorescence ratio came to 1.01.
TCATAAGGTC: the switch fluorescence ratio worked out at 1.05.
With ACGAACATCT, the switch fluorescence ratio was found to be 1.27.
With ATAAAATCA, the switch fluorescence ratio turned out to be 0.968.
As to AACAGGAGGC, the switch fluorescence ratio was found to be 0.93.
Take CCATTCCCTT: the switch fluorescence ratio was 0.994.
On to TATTATCTGT, for which the switch fluorescence ratio was 0.962.
For TGCATTGCGG, the switch fluorescence ratio was determined as 0.996.
